Reference: the RNAGym collection of RNA variant scans (doi:10.7554/elife.90254)
Read counts are not given, so values of variants with three or more changes are uncertain.

B1: LINE1-mini (parent)
chain: GGCAGAGCUCAACACAGCGUGGCAAAGUGGCUGUGGCUAGACUGCC

Variants of: B1
Assay: self-cleavage, relative activity (ratio to wild type); higher = more cleavage; in vitro, sequencing; the parent is a self-cleaving ribozyme

Variant	self-cleavage
GGCAGAGCUCAACACAUCGUAGUAAAGUGGCUGUGGCUAGACUGCC	0.28
GGCAGAGCUCAACACAUCCUGGCAAAGUGGCUGUGGGUAGACUGCA	0.02
GGCAGAGCUCAACACAUCGUAGCAAAGUGUCUGUGGCUAGACUGCC	0.01
GGCAGAGCUCAACACAUCGUGGCAAAGUGGCGGUGGCUAGAAUGCC	0.13
GGCAGAGCUCAACACAUCGUGGCAAAUUGGCUGUGGCUAGACGGCC	0.27
GGCAGAGCUCAACACAUCGUGGCAAAGUGGCUGUGGAUAGACUGGC	0.03
GGCAGAGCUCAACACAUCGUGGCAAAGCGGCUGUGGUUAGACUGCC	0.02
GGCAGAGCUCAACACAUCUUGGCAAAGUGGCAGUGGCUAGACUGCC	0.04
GGCAGAGCUCAACACAGAGUGGCAAAGUGGUUGGGGCUAGACUGCC	0
GGCAGAGCUCAACACAGAGUGGCAAAGUGGCUGUGGCUGGAUUGCC	0
GGCAGAGCUCAACACAGAGUGACUAAGUGGCUGUGGCUAGACUGCC	0.55
GGCAGAGCUCAACACAGAGUGGCAAAGUGGUUAUGGCUAGACUGCC	0.04
GGCAGAGCUCAACACAUCAUGGCAAAGUGGGCGUGGCAAGACUGCC	0.12
GGCAGAGCUCAACACAUCGUGGCAAAGUGGCUCUGGCUAAACUGGC	0.03
GGCAGAGCUCAACACAGAGUGGCAAAGUGGCUGUGGAUAGACCGCC	0
GGCAGAGCUCAACACAGAGUUUCAAAGUGGCUGUUGCUAGACUGCC	0.01
GGCAGAGCUCAACACAUCGUUGCAAAGUGGCUGUGGCUAGACUGAC	0.06
GGCAGAGCUCAACACAGAAUGGCAAAGUGGCUGUCGCUAGACUGCC	0.15
GGCAGAGCUCAACACAUCGUGGCAAAGUGGCUGUGACUAGAGUGAC	0

Variant	self-cleavage
GGCAGAGCUCAACACAGAGUGGGAAAGUGGCAGUGGCUAGACUGCC	0.11
GGCAGAGCUCAACACAUCGUGGCAAAGUGGCUGUGGCUAAACCGCC	0.03
GGCAGAGCUCAACACAUCGAGGCAAAGUGGCAGUGGCUAGACUGCC	0.02
GGCAGAGCUCAACACAGAGUGGCAACGUGUGUGUGGCUAGACUGCC	0.01
GGCAGAGCUCAACACAUCGUGGCAAAGUCGCAGUGGCUAGACUGCC	0.37
GGCAGAGCUCAACACAGAGUGGGAAAGUGGCUGGGGCUAGACUACC	0.01
GGCAGAGCUCAACACAGAGUGGUAAAGUGGCUGUGUCUAGACUGCC	0.04
GGCAGAGCUCAACACAUCCUGGCAAAGUGGCUGUGGGAAGAGUGUU	0.01
GGCAGAGCUCAACACAUCGUCGCGAAGUAGCUGUGGCUAGACUGCC	0.26
GGCAGAGCUCAACACAUCGUGGCAAAGGGGCUGCGGCUAGGCUGCC	0.05
GGCAGAGCUCAACACAUCGGGUCAAAUUGCCUGUGGCUAGUGUGCC	0.04
GGCAGAGCUCAACACAGAGUGACAAAGUGGCAGUGGCUAGACUGCC	0.03
GGCAGAGCUCAACACAGAGUAGCAAAGGGGCUGUCGCUAGACUCCC	0.01
GGCAGAGCUCAACACAGAGUGGCACAGUGGCUGUGCCUAGACUGCC	0.02
GGCAGAGCUCAACACAUCGUCGCAAACUGGUUGUGGCUAGACUGCC	0.43
GGCAGAGCUCAACACAGAGUGGUAAAGUUGCUGUGGCCAGACUGCC	1.02
GGCAGAGCUCAACACAUCGUAGGAAAGCGGCUGUGGCUAGACUGGC	0
GGCAGAGCUCAACACAUCCUGGCAAAGUCGCUGUGGCUAGACUGCC	0.28
GGCAGAGCUCAACACAGAGUCGCAAUGUGGCUGUGGCUAAACUGCC	0.01

Variant	self-cleavage
GGCAGAGCUCAACACAUCGUGGCAAAUUUGCUGUGUCUAGACUGCC	0.17
GGCAGAGCUCAACACAUCGAGGCAAAGUGGUUGUGGCUAGACUGCU	0.05
GGCAGAGCUCAACACAGAGUGGCAAAGUGGCUGUGGGUAGACGGCC	0
GGCAGAGCUCAACACAUCGUUGCAAAGUGGUUGUGGCUAGACUACC	0.04
GGCAGAGCUCAACACAUCUGGGCAAAAUGGCUCUGGCUAGACUGCC	0.02
GGCAGAGCUCAACACAUCUUGGCAAAGUGGCUGUGGCCAGACUGCC	0.07
GGCAGAGCUCAACACAUCGUGGCAAAGUGGUUGUGGCUAGAGUGCC	0.05
GGCAGAGCUCAACACAUCGUUGCAAAGUGGCUGUGGUUAGACUGCC	0.06
GGCAGAGCUCAACACAUCGCGGGAAAGUGGCUGUGGCUAGACUGCC	0.21
GGCAGAGCUCAACACAUCGUGGCAAAGUUGCUGUGGCUCGACUGCC	0.03
GGCAGAGCUCAACACAUCGUGGCAAAGAGGCUGUGGCCAGACUGCC	0.03
GGCAGAGCUCAACACAGAAUGGCAAAGUGGCUGUGGCUAGACUGAC	0.33
GGCAGAGCUCAACACAUCGUGUCUAAGUGGCGGUGGCUAGACUGCC	0.06
GGCAGAGCUCAACACAGAGUGGCACAGUGGCAGUGGCUAGACUGCC	0.05
GGCAGAGCUCAACACAGACUGGUAAAGUGGCAGUCGCUAGACUGCC	0.1
GGCAGAGCUCAACACAUCGUGGCAAAGAGGCUGUGCCUAGACUGCC	0.06
GGCAGAGCUCAACACAGAGUAGCUAAGUGACUGUGGCUAGACCGCC	2.9
GGCAGAGCUCAACACAGAGUGGCGAAGUGGCUGUGGCGAGACUACC	0
